Experimental data: the supplement of paper PMC3656093
± gives the standard deviation of the averaged measurements. In all, about 1,900 compounds were measured (“CD40L-induced NF-kB luciferase activity, plate-corrected, relative to DMSO (0) and IKK inhibitor VII (-100) controls”: median about 0.032, lowest 2% from about -26 on). This is one part of the list.

Tested on: BL2-NFkB-Luc
Assay: CD40L-induced NF-kB luciferase activity, plate-corrected, relative to DMSO (0) and IKK inhibitor VII (-100) controls (% normalized activity); higher = more NF-kB reporter activity (less inhibition)
Conditions: 9.4 µM; stimulus: tCD40L 64 ng/ml; 4.5 h
Experimental: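 BL2 B cells with a stable NF-kB response-element luciferase reporter (BL2-NFkB-Luc), 384-well. Cells were pre-incubated with compound at 9.4 uM for 1 h at 37 C, then stimulated with 64 ng/ml trimerized CD40L for 4.5 h; luciferase was read with Steady-Glo. Signal was normalised per plate in Genedata (median DMSO neutral control = 0, median IKK inhibitor VII at 50 uM = -100) with Assay Median plate-pattern correction; duplicate plates.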

Row | SMILES | CD40L-induced NF-kB luciferase activity
1 | COc1ccc(/C=C(/C#N)c2cccnc2)cc1OC | 3.06 ± 3.7
2 | C[C@H](CS)C(=O)N1CCC[C@H]1C(=O)O | -2.48 ± 0.67
3 | COc1cccc(N2CC34C=CC(O3)C(C(=O)O)C4C2=O)c1 (stereo not drawn) | 8.23 ± 1.8
4 | CC1=CC2(O)OCCN(CCO)C2=CC1=O (stereo not drawn) | -2.33 ± 5.6
5 | CC(=O)c1cn(C)c(=O)[nH]c1=O | 0.241 ± 1.2
6 | NCCc1ccc(O)c(O)c1 | -1.92 ± 0.31
7 | Cc1nonc1CN(C)C(=O)c1ccc(OC2CCN(C(=O)c3cccnc3)CC2)cc1 | 41.9 ± 0.33
8 | CC(C)(C)c1ccc(/C=C/C(=O)N2CCCCC2)cc1 | 71.9 ± 8.8
9 | COCCNC(=O)CSc1ccc(Cl)cc1 | 0.647 ± 1.4
10 | OC(CCN1CCCC1)(c1ccccc1)C1CCCCC1 (stereo not drawn) | 0.49 ± 3
11 | CCCCCCCCN[C@H](C)[C@@H](O)c1ccc(SC(C)C)cc1 | 4.01 ± 2.6
12 | CCCCOc1ccc(C(=O)CCN2CCCCC2)cc1 | -3.59 ± 1.6
13 | COc1cc(CO)ccc1OCc1nnnn1-c1ccc(C)cc1 | 2.51 ± 0.59
14 | C[C@H](NC(=O)C1(c2ccccc2)CCN(C(=O)[C@H]2CSCN2C(=O)OC(C)(C)C)CC1)C(=O)O | 5.46 ± 5.9
15 | CC[C@]1(O)C[C@@H]2CN(CCc3c([nH]c4ccccc34)[C@@](C(=O)OC)(c3cc4c(cc3OC)N(C=O)[C@H]3[C@@](O)(C(=O)OC)[C@H](OC(C)=O)[C@]5(CC)C=CCN6CC[C@]43[C@@H]65)C2)C1 | -50.4 ± 4.8
16 | NS(=O)(=O)c1cc2c(cc1Cl)NC(C1C[C@H]3C=C[C@@H]1C3)NS2(=O)=O (stereo partly drawn) | 4.77 ± 0.85
17 | COc1cc2nc(N3CCN(C(=O)C4COc5ccccc5O4)CC3)nc(N)c2cc1OC (stereo not drawn) | 0.0855 ± 3.3
18 | C[C@@H]1C[C@H]2[C@@H]3CCC4=CC(=O)C=C[C@]4(C)[C@@]3(F)[C@@H](O)C[C@]2(C)[C@H]1C(=O)CO | -31.39 ± 0.23
19 | Cc1cc(C(C)(C)C)cc(C)c1CC1=NCCN1 | -2.48 ± 2.8
20 | CCN(CCCCOC(=O)c1ccc(OC)c(OC)c1)C(C)Cc1ccc(OC)cc1 (stereo not drawn) | -3.39 ± 0.46
21 | COC(=O)c1cc(COc2ccc3ccc(=O)oc3c2)c(C)o1 | -1.24 ± 3.4
22 | COc1cc(-c2nnc(-c3cccs3)o2)cc(OC)c1OC | 7.78 ± 8.6

Row | SMILES | CD40L-induced NF-kB luciferase activity
23 | NC[C@H]1O[C@H](O[C@H]2[C@H](O)[C@@H](O[C@H]3O[C@H](CO)[C@@H](O)[C@H](N)[C@H]3O)[C@H](N)C[C@@H]2N)[C@H](N)C[C@@H]1O | 2.99 ± 2.8
24 | CC1(C)Cc2nc3sc4c(=O)n(CC(N)=O)cnc4c3cc2CO1 | -5.2 ± 5.3
25 | CC(C)C1Cc2[nH]c(=O)c(C(=O)O)cc2CO1 (stereo not drawn) | -5.76 ± 3.3
26 | COc1cc2c(cc1OC)CN(Cc1ccc(C)s1)CC2 | -4.91 ± 5.6
27 | Cc1[nH]c2ccccc2c1C(=O)CN1CCCC1 | -3.4 ± 5.8
28 | NC12CC3CC(C1)CC(O)(C3)C2 | -3.49 ± 3
29 | Cc1ccc(C(=O)COC(=O)c2cnccn2)cc1[N+](=O)[O-] | 0.896 ± 2.4
30 | COc1cc(OC)cc(C(=O)N[C@@H](CCSC)c2nc3ccccc3[nH]2)c1 | -3.07 ± 0.071
31 | Cc1cc(C)nc(NS(=O)(=O)c2ccc(N)cc2)n1 | -1.97 ± 1
32 | O=C(c1ccc(Cl)cc1)C1CCCN(C(=O)/C=C/c2ccccn2)C1 (stereo not drawn) | -0.905 ± 1.6
33 | CC1(C)O[C@@H]2C[C@H]3[C@@H]4C[C@H](F)C5=CC(=O)C=C[C@]5(C)[C@@]4(F)[C@@H](O)C[C@]3(C)[C@]2(C(=O)CO)O1 | -23.7 ± 1.8
34 | CCOC(=O)C1=C(N)Oc2c(c(=O)[nH]c3ccccc23)C1c1ccccc1 (stereo not drawn) | 0.396 ± 1.2
35 | COc1ccc(/C=C2\CCc3ccccc3C2=O)c(OC)c1OC | 9.96 ± 2.8
36 | COc1ccc(CCNC(=O)CC(c2ccccc2)c2cccc(C)c2O)cc1OC (stereo not drawn) | -6.91 ± 1.1
37 | CC#C[C@]1(O)CC[C@H]2[C@@H]3CCC4=CC(=O)CCC4=C3[C@@H](c3ccc(N(C)C)cc3)C[C@@]21C | -7.39 ± 1.2
38 | CC(=O)OCC(=O)C1=CCC2C3CCC4=CC(=O)C=CC4(C)C3(F)C(OC(C)=O)CC12C (stereo not drawn) | -4.87 ± 4.6
39 | COc1ccc(Cl)cc1C(=O)NCCc1ccc(S(=O)(=O)NC(=O)NC2CCCCC2)cc1 | -7.56 ± 16
40 | COc1cc(CNCCc2c[nH]c3ccccc23)cc(Cl)c1OCC(N)=O | -2.87 ± 1.6
41 | FC(F)(F)c1ccc(-c2noc(CN3CCCN(C4CCCCC4)CC3)n2)cc1 | 3.08 ± 0.91
42 | CC(C)N(C(=O)Cc1ccccc1[N+](=O)[O-])C(C)C | 2.77 ± 2.3
43 | COc1cc2[nH]c3c(=O)n(CCN4CCOCC4)cnc3c2cc1OC | -2.05 ± 1.9
44 | CC(C)Oc1ccc2c(=O)c(-c3ccccc3)coc2c1 | 0.574 ± 3.5

Row | SMILES | CD40L-induced NF-kB luciferase activity
45 | CC(=O)Nc1nnc(S(N)(=O)=O)s1 | 2.43 ± 5
46 | COC(=O)c1ccc(CC(=O)c2ccc(O)cc2O)o1 | 1.24 ± 0.47
47 | O=C(O)c1ccc(N2C(=O)/C(=C\c3ccccc3)N=C2c2ccccc2)cc1 | 0.856 ± 0.066
48 | CC(/C=C1\SC(=O)N(CCCC(=O)O)C1=O)=C\c1ccccc1 | -84.08 ± 0.44
49 | COc1ccc(C2OC(=O)Cc3cc(OC)c(OC)cc32)cc1 (stereo not drawn) | 4.33 ± 0.061
50 | Cc1ccc(C(=O)Nc2ccc(O)cc2C(=O)O)cc1C | -0.921 ± 1.3
51 | CCc1c(C)c2ccc(OCC(=O)OC(C)C)c(C)c2oc1=O | 7.79 ± 0.47
52 | COc1ccc(C(=O)[C@H]2[C@H]3C(=O)N(c4ccccc4)C(=O)[C@H]3C3C=CC=NN32)cc1 (stereo partly drawn) | -1.84 ± 0.34
53 | CC(C)[C@H](NC(=O)[C@@H]1CSCN1C(=O)OC(C)(C)C)C(=O)NCC1CCC(C(=O)O)CC1 (stereo partly drawn) | 0.649 ± 2.5
54 | Cc1ccc2c(c1)c1c3n2CCCN(Cc2ccccc2)C3CCC1 (stereo not drawn) | 1.88 ± 0.99
55 | Cc1ccc2[nH]c3c(=O)n(CCCN4CCN(C)CC4)cnc3c2c1 | 5.32 ± 0.32
56 | C[C@@H]1CCC[C@H](C)N1NC(=O)c1ccc(Cl)c(S(N)(=O)=O)c1 | -0.334 ± 4
57 | CC(C)C(CCN1C(=O)CCC1=O)C1CCOC(C)(C)C1 (stereo not drawn) | -1.38 ± 6.7
58 | COCC(C)NC(=O)c1ccc(CN2CCc3ccccc3C2)cc1 (stereo not drawn) | 7.18 ± 5
59 | CC1(C)c2ccccc2N2CC(=O)N(CC(N)=O)C21C (stereo not drawn) | 1.75 ± 1.9
60 | COC(=O)c1ccccc1OCCOCCOc1cccc2ccc(C)nc12 | -1.72 ± 4.2
61 | O=C(CCCN1C(=O)/C(=C\c2cccc(Br)c2)SC1=S)Nc1cccnc1 | -2.47 ± 4.1
62 | C[N+](C)(C)CCCC(=O)c1ccc2c(c1)OCO2 | 3.1 ± 5.4
63 | OC[C@@H](O)[C@@H](O[C@H]1O[C@H](CO)[C@@H](O)[C@H](O)[C@H]1O)[C@H](O)[C@@H](O)CO | -3.32 ± 1.9
64 | CCN(CC)CCNC(=O)c1ccc(N)cc1 | -3.57 ± 7
65 | COc1cc2cc(C)nc(Cc3cccc4ccccc34)c2cc1OC | -4.08 ± 6
66 | CC(=O)C1=C(O)C(=O)N(Cc2cccnc2)C1c1ccc(C(C)C)cc1 (stereo not drawn) | 1.11 ± 2.3

Row | SMILES | CD40L-induced NF-kB luciferase activity
67 | COc1ccc(S(=O)(=O)N2CCN(C(=O)COc3ccc4c(C)cc(=O)oc4c3)CC2)cc1 | -2.3 ± 9.4
68 | CCOC(=O)Nc1c[n+](N2CCOCC2)no1 | 4.88 ± 2.3
69 | COc1cc(/C=C/C(=O)N2CCCC2)cc(OC)c1OC | -14 ± 13
70 | CC1(C)CC(C(CC(=O)N2CCCC2)Cc2ccccc2)CCO1 (stereo not drawn) | 3.46 ± 2.7
71 | O=C(O)C1CCN(C(=O)COc2ccc3c4c(c(=O)oc3c2)CCC4)CC1 | -3.71 ± 1.6
72 | O=C(NCC1CCCO1)c1ccc(OC2CCN(C(=O)C3CC3)CC2)cc1 (stereo not drawn) | -0.827 ± 3.7
73 | OC(COCc1ccccc1)CN1CCN(Cc2ccc3c(c2)OCO3)CC1 (stereo not drawn) | -0.97 ± 0.41
74 | Cc1cc(-c2nn(-c3ccccc3F)cc2CN2CCC(O)CC2)c(C)s1 | 1.72 ± 3.1
75 | Cc1ccccc1NC(=O)C1(C)Cc2ccccc2C(=O)O1 (stereo not drawn) | 1.79 ± 2.3
76 | CC[C@H](CO)NCCN[C@H](CC)CO | -4.19 ± 3
77 | CCOC(=O)[C@H]1O[C@@H]1C(=O)N[C@@H](CC(C)C)C(=O)NCCC(C)C | -4.46 ± 4.7
78 | CC(C)NCC(O)COc1ccc(CC(N)=O)cc1 (stereo not drawn) | 0.531 ± 1
79 | CC1=NS(=O)(=O)c2cc(Cl)ccc2N1 | 0.932 ± 0.17
80 | CC(=O)NC1C(OCc2ccccc2)OC(COC(C)=O)C(OC(C)=O)C1OC(C)=O (stereo not drawn) | -0.365 ± 4.4
81 | CN(C)CCC(c1ccc(Br)cc1)c1ccccn1 (stereo not drawn) | -6.17 ± 4.6
82 | c1ccc(-c2ccc(C(c3ccccc3)n3ccnc3)cc2)cc1 (stereo not drawn) | -0.306 ± 6.1
83 | COc1ccc(C2NCCC3(O)CCCCC23)c(OC)c1OC (stereo not drawn) | -0.584 ± 2.8
84 | C[C@]12CCC(=O)C=C1CC[C@@H]1[C@@H]2CC[C@@]2(C)[C@H]1CC[C@]2(O)C(=O)CO | -8.87 ± 3.8
85 | Cc1oc2ccc(OC(=O)c3cccs3)cc2c1C(=O)OC(C)C | 6.48 ± 1
86 | CCOc1ccc(NC(=O)N[C@@H](CCSC)C(=O)OC)cc1 | 3.53 ± 5.2
87 | O=C(CSCc1ccccc1)NCCCN1CCOCC1 | -1.22 ± 0.0028
88 | CCC1(c2ccccc2)C(=O)NCNC1=O | 2.15 ± 9.9

Row | SMILES | CD40L-induced NF-kB luciferase activity
89 | COc1ccc(C2C(C#N)=C(N)Oc3cc(C)[nH]c(=O)c32)c(OC)c1OC (stereo not drawn) | 4.6 ± 0.22
90 | CCC(C(=O)Nc1ccc2c(c1)OCCO2)c1ccccc1 (stereo not drawn) | 1.02 ± 2
91 | Cc1ccc(CSCC(=O)N2CCCC2)cc1 | 10.2 ± 1
92 | c1ccc2c3c(c(CN4CCCCC4)cc2c1)COC3 | -1.11 ± 4.5
93 | O=C(OCC1OC2OC3(CCCCC3)OC2C2OC3(CCCCC3)OC12)c1ccccc1 (stereo not drawn) | 2.42 ± 3.6
94 | Cc1ccc(OCc2nc(-c3cccnc3)no2)cc1C | 34.5 ± 7.5
95 | Nc1cnn(C2OC(CO)C(O)C2O)c(=O)n1 (stereo not drawn) | 6.46 ± 4.2
96 | Cc1nc(N)sc1C(=O)NN=Cc1ccco1 | 2.45 ± 1.3
97 | Clc1ccc2c(c1)CCc1cccnc1C2=C1CCNCC1 | -1.74 ± 4.4
98 | COc1ccc(CCN2C(=O)CSC2c2ccc(OC)c(OC)c2)cc1OC (stereo not drawn) | -4.37 ± 4.7
99 | CC12CN3CC(C)(CN(C1)C3c1ccc([N+](=O)[O-])o1)C2 (stereo not drawn) | 3.42 ± 1.1
100 | O=C1c2ccccc2N2C(=O)c3ccccc3C2N1Cc1ccco1 (stereo not drawn) | -3.98 ± 15
101 | CCc1c(C(C)=O)oc2ccc3c(C)cc(=O)oc3c12 | 92.1 ± 14
102 | CC1(C)CC(NCc2ccccc2)CCO1 (stereo not drawn) | 0.252 ± 2.9
103 | CCN(CC)C(=O)c1ccc(O)c(OC)c1 | 0.679 ± 1.2
104 | COc1ccc(-c2nc3c(=O)n(C)c(=O)[nH]c3n2CCc2ccccc2)cc1 | 1.44 ± 3.9
105 | O=C(/C=C/c1ccc(Cl)cc1)NCCc1ccccc1 | 31.1 ± 4.1
106 | COc1ccccc1NC(=O)Cn1c(C)cc(=O)c2cccc(OC)c21 | 3.21 ± 3.6
107 | CC(C)CC(=O)N(Cc1ccc(F)cc1)C1CCS(=O)(=O)C1 (stereo not drawn) | -1.59 ± 0.097
108 | CC(=O)[C@@]1(O)CC[C@H]2[C@@H]3CCC4=CC(=O)CC[C@]4(C)[C@H]3CC[C@@]21C | -4.67 ± 5.7
